Data published in PubChem BioAssay AID588591 (National Center for Advancing Translational Sciences (NCATS), 2011).
“And” between values parts separate entries of the source, which are not always exact repeats. Identical values can stand only once. Among all 390,000 compounds or so, about 4,700 (1.2%) were called active. Roughly 4% stayed inconclusive and do not appear here. The call rests on the fitted dose curve; in most records, active means well fitted inhibition curve with a large enough effect; inconclusive means small, poorly fitted or top-dose-only effect, or another doubt; inactive means no such curve, though single readings can be large or run the other way. Only a part is listed here, and it is no random draw. More than one record can exist for a structure, and the calls need not agree.

The compounds below were run against DNA polymerase eta (Homo sapiens) (UniProt Q9Y253) (assay: qHTS for Inhibitors of Polymerase Eta). Conditions: recombinant Pol eta, fluorescent DNA replication assay; series mostly up to 114 µM; activity change, negative = inhibition: at the top concentration.
Method in brief: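 Fluorescent replication assay: 50 nM final substrate added after a 15 min room-temperature compound preincubation with 10 nM enzyme. Signal taken at 0 min and again at 10 min.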
On the % scale 0 is the no-effect control and ±100 the full control effect; potency means the concentration at half of the fitted maximal effect.

Sequence of UniProt Q9Y253 (Q9Y253 whole entry, looked up): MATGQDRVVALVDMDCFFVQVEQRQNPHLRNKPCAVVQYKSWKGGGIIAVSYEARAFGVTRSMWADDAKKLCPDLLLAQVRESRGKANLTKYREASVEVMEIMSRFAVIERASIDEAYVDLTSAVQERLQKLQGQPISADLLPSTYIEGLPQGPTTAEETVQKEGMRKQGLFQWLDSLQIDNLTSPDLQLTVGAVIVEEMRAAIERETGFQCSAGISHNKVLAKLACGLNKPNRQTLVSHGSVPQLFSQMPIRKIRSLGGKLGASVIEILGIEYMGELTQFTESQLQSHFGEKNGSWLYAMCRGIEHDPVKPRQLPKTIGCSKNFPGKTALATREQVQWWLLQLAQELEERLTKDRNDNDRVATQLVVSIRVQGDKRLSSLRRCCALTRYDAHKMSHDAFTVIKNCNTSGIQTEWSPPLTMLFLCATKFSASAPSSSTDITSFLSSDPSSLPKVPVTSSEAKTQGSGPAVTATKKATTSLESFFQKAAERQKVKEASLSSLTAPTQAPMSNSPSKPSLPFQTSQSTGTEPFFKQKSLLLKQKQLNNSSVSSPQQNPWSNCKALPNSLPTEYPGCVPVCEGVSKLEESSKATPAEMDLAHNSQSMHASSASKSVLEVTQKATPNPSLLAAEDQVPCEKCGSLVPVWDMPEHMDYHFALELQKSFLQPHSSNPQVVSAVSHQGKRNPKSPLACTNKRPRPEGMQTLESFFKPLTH

Row | Structure (SMILES) | activity change, negative = inhibition | Potency
1 | CCc1c(C)nc(Nc2nc(C)c3ccc(OC)cc3n2)[nH]c1=O | inactive: 20.1% | 
2 | Cc1cccc(NC(=O)Nc2ccccn2)c1C | inactive: 40.1% | 
3 | N#Cc1cc2nc(O)c(O)nc2cc1[N+](=O)[O-] | inactive: 2.63% | 
4 | CCC(C(=O)NC1CCCCC1)n1c(SCc2ccccc2F)nc2ccncc21 (configuration not stated) | inactive: -23.4% | 
5 | C=CCOC(=O)C1=C[C@H](c2csc3ccccc23)[C@@H](CCCO)[C@H](OCC)O1 | inactive: -19.8% | 
6 | N[C@@H](Cc1cc(I)c(Oc2ccc(O)c(I)c2)c(I)c1)C(=O)O | inactive: -7.58% | 
7 | COc1ccc(NS(=O)(=O)c2cccc(C(=O)N/N=C(/C)c3ccc(-n4ccnc4)cc3)c2)cc1 | inactive: -14.4% | 
8 | O=C(Cc1ccc(S(=O)(=O)N2CCOCC2)s1)NC1CCCCC1 |  | active: 20 µM
9 | O=C(N/N=C/c1ccc(F)cc1)c1cc(-c2ccco2)nc2ccccc12 |  | active: 1.58 µM
10 | C=CCn1c(SCC(=O)c2ccc(O)c(O)c2)nnc1-c1cccnc1 |  | active: 3.98 µM
11 | COc1ccc(OC)c(/C=N/NC(=O)c2[nH]nc3c2CCc2ccccc2-3)c1 | inactive: 16.7% | 
12 | O=C(CSc1nc(=O)n2ccccc2n1)OCc1ccccc1 | inactive: -12.4% | 
13 | COC(=O)c1ccc(NC(=O)CCS(=O)(=O)c2ccc(Br)cc2)cc1 | inactive: -14.7% | 
14 | COc1cc2nc(Nc3ccc(C)c(C)c3)nc(N)c2cc1OC | inactive: -24.3% | 
15 | CCCCN(C(=O)c1ccco1)C1CCS(=O)(=O)C1 (configuration not stated) | inactive: 3.05% | 
16 | COc1ccc(-c2nn(-c3ccccc3)cc2/C=C2/SC(=S)N(CCC(=O)O)C2=O)cc1 |  | active: 22.4 µM
17 | NS(=O)(=O)c1cc2c(cc1Cl)NC(C1CC3C=CC1C3)NS2(=O)=O (configuration not stated) |  | inactive
18 | Cc1cc(NC(=O)c2cnn3c(C(F)(F)F)cc(-c4ccccc4)nc23)no1 | inactive: -11.7% | 
19 | Cc1ccc2c(C)nc(Nc3nc(CSc4nnc(C)s4)cc(=O)[nH]3)nc2c1 | inactive: 29.1% | 
20 | Cc1ccc(C(=O)c2c(C)oc3c2C(=O)C(=O)c2ccccc2-3)cc1 |  | active: 44.7 µM
21 | Ic1ccc(N2CCN(Cc3c[nH]c4ncccc34)CC2)cc1 | inactive: -18.4% | 
22 | CCN(CC)S(=O)(=O)c1ccc(N2CCOCC2)c(NC(=O)c2c3c(nc4ccccc24)CCC3)c1 |  | active: 35.5 µM
23 | C=CCC[C@H](Cc1ccc(F)cc1)C(=O)OC[C@@H](Cc1c[nH]c2ccccc12)NC(=O)[C@H](CC=C)CC(=O)N(CCO)Cc1ccccc1 | inactive: -21.8% | 

Row | Structure (SMILES) | activity change, negative = inhibition | Potency
24 | COc1cccc2c1C(=O)c1c(O)c3c(c(O)c1C2=O)C[C@@](O)(C(C)=O)C[C@@H]3O[C@H]1C[C@H](N)[C@H](O)[C@H](C)O1 | inactive: -12.1% | 
25 | C=CCC[C@@H](Cc1ccc(F)cc1)C(=O)OC[C@@H]1CCCN1C(=O)[C@H](CC=C)CC(=O)N[C@H](CO)Cc1ccccc1 | inactive: -30.5% | 
26 | CCCN(CC(=O)Nc1ccccc1C)C(=O)c1ccc(S(=O)(=O)N2CCCC2)cc1 | inactive: -2.17% | 
27 | C/C(=N\NC(=O)c1ccc(-c2ccccc2)cc1)C1C(=O)c2ccccc2C1=O |  | active: 31.6 µM
28 | COc1ccc(CC(=O)N/N=C/C=C/c2ccc3c(c2)OCO3)cc1OC | inactive: 30.4% | 
29 | CC(=O)Nc1ccc(NC(=S)NC(=O)/C=C/c2ccco2)cc1 |  | active: 28.2 µM
30 | Oc1ccc(-c2nc(-c3ccc(F)cc3)c(-c3ccncc3)[nH]2)cc1 | inactive: -19.8% | 
31 | OCC[C@@H]1C[C@H](O)[C@@H](O)[C@]2(CCCc3ccccc3O2)O1 | inactive: 7.59% | 
32 | COc1ccc2ccc3c(c2c1)N=CC1(O3)N(C)c2ccccc2C1(C)C (configuration not stated) | inactive: -17.5% | 
33 | Cc1ccc(N(CC(=O)N2CCN(c3ccc(F)cc3)CC2)S(=O)(=O)c2c(C)noc2C)cc1 | inactive: -21.9% | 
34 | CC(=O)C[C@H](O)CC(=O)[C@@H]1OC(=O)[C@H](C)C/C=C\Cc2ccccc21 | inactive: -8% | 
35 | CCc1ccc(NC2=CC(=O)C(=O)c3ccccc32)cc1 |  | active: 50.1 µM
36 | COc1ccc(NC(=O)CN(C)C(=O)c2cc3c(s2)CCC3)cc1 |  | active: 3.16 µM
37 | O=[N+]([O-])c1cc2ccccc2c(O)c1O |  | active: 4.47 µM
38 | CCCCN(CC)CCNC(=O)CCC(=O)Nc1ccc2nc(N3CCN(C)CC3)cc(C)c2c1 | inactive: 36.9% | 
39 | FC(F)(F)c1cc(-c2ccco2)nc(NCc2ccco2)n1 |  | active: 50.1 µM
40 | Cc1cc(C(=O)N/N=C/c2ccc([N+](=O)[O-])cc2)c2ccccc2n1 | inactive: 27.4% | 
41 | Oc1c(Br)cc(/C=N/Nc2ccc(Cl)nn2)cc1Br |  | active: 22.4 µM
42 | CCc1cc(=O)oc2cc(C)c(CN3CCCC(C)C3)c(O)c12 (configuration not stated) |  | active: 35.5 µM
43 | Cc1cccc(NC(=O)COC(=O)CNC(=O)C2CCCCC2)c1 | inactive: 4.91% | 
44 | Cc1cc(C(=O)Nc2sc3c(c2C#N)CCC3)no1 |  | active: 79.4 µM
45 | COc1ccc(-c2ccc3c(N)c(C(=O)c4ccc(OC)c(OC)c4)sc3n2)cc1 | inactive: -18.8% | 
46 | CCOc1ccc(NC(=O)C2CCC(CNc3c(N4CCCCC4)c(=O)c3=O)CC2)cc1 (configuration not stated) | inactive: 32.9% | 

Row | Structure (SMILES) | activity change, negative = inhibition | Potency
47 | CN(C)Cc1cccc([N+](=O)[O-])c1O | inactive: 31% | 
48 | C=CC[C@@H](CC(=O)N(CCO)Cc1ccccc1)C(=O)N[C@H](COC(=O)[C@@H](CC=C)CC(=O)OC(C)(C)C)Cc1c[nH]c2ccccc12 | inactive: -29.7% | 
49 | COc1ccc(NC(=O)/C(=C\c2ccc3c(c2)OCO3)NC(C)=O)cc1 | inactive: 7.38% | 
50 | Cc1ccc(C)c(NC(=O)Cn2nnc(-c3ccc(N4CCOCC4)cc3)n2)c1 | inactive: 15.5% | 
51 | COc1cc(OC)cc(C(=O)NC(C(=O)OCn2nnc3ccccc3c2=O)C(C)C)c1 (configuration not stated) | inactive: -15.1% | 
52 | Cc1ccc2c(Cl)cc(Cl)c(OCC(=O)NC(C)(C)C)c2n1 | inactive: 31.7% | 
53 | O=C(/C=C/c1ccco1)Nc1ccccc1C(=O)Nc1cccc(C(=O)O)c1 |  | active: 17.8 µM
54 | Cc1ccc(-c2nc(SCc3ccc(Br)cc3)n3[nH]c(=O)cc3n2)cc1 |  | active: 20 µM
55 | CCCc1cc2c(-c3ccccc3)cc(=O)oc2cc1OCc1ccc(C(=O)O)o1 |  | active: 79.4 µM
56 | CCCCc1nn2c(=O)cc(COC(=O)c3ccc(NC(=O)C4CCCCC4)cc3)nc2s1 | inactive: 19.4% | 
57 | O=C(Nc1ccc(Br)cn1)c1cccc2c1-c1ccccc1C2=O | inactive: 26.7% | 
58 | Cc1ccc(NC(=O)C(=O)NCC2CCCO2)cc1C (configuration not stated) | inactive: 32.8% | 
59 | O=C(Cn1cnc2scc(-c3ccccc3)c2c1=O)NCc1ccco1 |  | active: 22.4 µM
60 | Cc1ccc2c(c1)sc1nc(=O)n(-c3cccc(Cl)c3)c(=O)n12 | inactive: -11.5% | 
61 | C[c-]1[c-](C)[c-](C)[c-](C)[c-]1C.[Fe].c1cc2nccc(N3CCCC3)[c-]2c1 (configuration not stated) |  | active: 20 µM
62 | CC1=Nc2ccccc2/C1=C\c1nc(-c2ccc(C(F)(F)F)cc2)oc1O | inactive: 54.7% | 
63 | Cn1c(=O)c2ncn(CC(=O)Nc3cccc(-c4nc5ccccc5s4)c3)c2n(C)c1=O | inactive: 4.93% | 
64 | O=C(O)c1cc(O)c2c(c1)[C@@H]([C@H]1c3cc(C(=O)O)cc(O)c3C(=O)c3c(O[C@@H]4O[C@H](CO)[C@@H](O)[C@H](O)[C@H]4O)cccc31)c1cccc(OC3O[C@H](CO)[C@@H](O)[C@H](O)[C@H]3O)c1C2=O (some centres not stated) | inactive: -99.8% | 
65 | Cc1nc2c(oc3ccc(Cl)cc32)c(=O)[nH]1 | inactive: 34.1% | 
66 | CC(=O)N1CCc2c(sc(NC(=O)CSc3ccc(C)cc3)c2-c2nc3ccccc3s2)C1 | inactive: 16.9% | 
67 | COc1ccccc1/C=C/C=c1\sc2nc(=O)c(Cc3ccccc3)nn2c1=O |  | active: 20 µM
68 | O=C(CN1C(=O)/C(=C/c2ccco2)SC1=S)Nc1ccc(C(=O)O)c(O)c1 |  | active: 3.55 µM
69 | COc1ccc(C2c3sc(=O)[nH]c3SCC2C(N)=O)cc1 (configuration not stated) | inactive: 46.6% | 

Row | Structure (SMILES) | activity change, negative = inhibition | Potency
70 | COc1cccc(N2CC(C(=O)Nc3nnc(SCC(=O)NCc4ccco4)s3)CC2=O)c1 (configuration not stated) |  | active: 31.6 µM
71 | CCOC(=O)C1CCN(C(=O)Nc2ccc3nc(-c4ccco4)c(-c4ccco4)nc3c2)CC1 |  | active: 2.82 µM
72 | N#C/C(=C\c1ccc(-c2ccccc2C(=O)O)o1)c1nc2ccccc2[nH]1 | inactive: -10% | 
73 | CCOc1ccc(N=C(/C(C(=O)C(=O)N2CCOCC2)=C(/O)c2ccccc2)c2ccccc2)cc1 | inactive: -18% | 
74 | COCCNC(=O)C(c1ccco1)N(C(=O)Cn1nnc2ccccc21)c1ccccc1C (configuration not stated) | inactive: -6.87% | 
75 | CCn1c(=O)c(-[n+]2ccccc2)c(O)c2ccccc21 | inactive: 9.8% | 
76 | Cc1cccc2cc(/C=N/NC(=O)c3ccncc3)c(Cl)nc12 | inactive: 22.4% | 
77 | C[C@H](NC(=O)c1nc[nH]c1C(=O)NCC(=O)OC(C)(C)C)c1ccccc1 | inactive: -21.7% | 
78 | Cc1cccc(-n2c(-c3ccc(Br)o3)n[nH]c2=S)c1 | inactive: 25.9% | 
79 | C/C(N)=C(/C#N)C(=O)CSc1nnc(SCc2ccc(Cl)cc2)s1 | inactive: 0.586% | 
80 | CCCCCCCC/C=C\CCCCCCCC(=O)NCCO | inactive: -14.6% | 
81 | O[C@H]1CN(CC2CCCCC2)[C@@H](c2ccc(Cl)cc2)C[C@@H]1n1cc(C2CC2)nn1 | inactive: -27.3% | 
82 | O=C(CSc1ncccc1-c1nc2ccccc2[nH]1)NCc1ccco1 |  | active: 25.1 µM
83 | C=CCn1c(SCc2nc3sc(C(=O)O)c(C)c3c(=O)[nH]2)nnc1-c1ccc(C(C)(C)C)cc1 |  | active: 7.08 µM
84 | COc1ccccc1NC(=O)CN1CCN(CC(=O)Nc2ccccc2F)CC1 | inactive: 47.7% | 
85 | Cc1cccc(N2C(=O)CC(n3ccnc3)C2=O)c1C (configuration not stated) | inactive: 17.9% | 
86 | Cc1cc(C)cc(NC(=O)Cn2nnc(C(=O)NCc3ccco3)c2N)c1 | inactive: -16.2% | 
87 | COc1ccc(C2c3c(-c4ccccc4O)n[nH]c3C(=O)N2Cc2ccco2)cc1 (configuration not stated) | inactive: -8.54% | 
88 | Cc1cc(/C=C2\NC(=S)NC2=O)c(C)n1-c1cccnc1 | inactive: -6.2% | 
89 | CC1=CC(C)=Nc2ccccc2N1 | inactive: 16.1% | 
90 | COc1cc(/C=C2/C(=N)N3C(=NC2=O)SN=C3S(=O)(=O)C(C)C)ccc1OC(=O)c1ccco1 |  | active: 79.4 µM
91 | O=C(O)CCC(=O)Nc1sc2c(c1C(=O)Nc1ccccc1)CCCCC2 |  | inactive and active: 89.1 µM
92 | Cc1noc(NS(=O)(=O)c2ccc(N/C=C/C(=O)c3ccc4c(c3)OCO4)cc2)c1C | inactive: 5.15% | 
